According to the RNAGym collection of RNA variant scans (doi:10.7554/elife.90254):
Read counts are not given, so values of variants with three or more changes are uncertain.

B1: LINE1-mini (parent)
chain: GGCAGAGCUCAACACAGCGUGGCAAAGUGGCUGUGGCUAGACUGCC

Variants of: B1
Assay: self-cleavage, relative activity (ratio to wild type); higher = more cleavage; in vitro, sequencing; the parent is a self-cleaving ribozyme

Variant	self-cleavage
GGCAGAGCUCAACACAGCGUGGCAAGGUGGCUGCGGUUAGACUGCC [A26G U34C C37U]	0.06
GGCAGAGCUCAACACAGCGUGGCAAGGUGGCUGGGGCUAUACUGCC [A26G U34G G40U]	0.01
GGCAGAGCUCAACACAGCGUGGCAAGGUGGCUGUGGCUAGACGGCA [A26G U43G C46A]	0.02
GGCAGAGCUCAACACAGCGUGGCAAUGUGGAUGUGGAUAUACUGCC [A26U C31A C37A G40U]	0.04
GGCAGAGCUCAACACAGCGUGGCAAUGUGGAUGUGGCUAGACUGCA [A26U C31A C46A]	0.02
GGCAGAGCUCAACACAGCGUGGCAAUGUGGUUGUGGUUAGACUGCC [A26U C31U C37U]	0.1
GGCAGAGCUCAACACAGCGUGGCAAUGUGGUUGUGGCGAGACUGAC [A26U C31U U38G C45A]	0.01
GGCAGAGCUCAACACAGCGUGGCAAUGUGGCUGUGGAUGGACUGCC [A26U C37A A39G]	0.04
GGCAGAGCUCAACACAGCGUGGCAAUGUGGCUGUGGCUAGAUUGCA [A26U C42U C46A]	0.09
GGCAGAGCUCAACACAGCGUGGCAAUAUGGCUGUGGCUGGACUCCC [A26U G27A A39G G44C]	0.1
GGCAGAGCUCAACACAGCGUGGCAAUAGGGCUGUGGCUAGACUGCC [A26U G27A U28G]	0.93
GGCAGAGCUCAACACAGCGUGGCAAUCUGGCUGUGGCUAGGCUGCC [A26U G27C A41G]	0.15
GGCAGAGCUCAACACAGCGUGGCAAUCUGGCUGUGGCUAGACUGCU [A26U G27C C46U]	0.21
GGCAGAGCUCAACACAGCGUGGCAAUGUAGCUGUGGAUAAACUGCC [A26U G29A C37A G40A]	0.05
GGCAGAGCUCAACACAGCGUGGCAAUGUUGAUGUGGCUAGACUGCC [A26U G29U C31A]	0.05
GGCAGAGCUCAACACAGCGUGGCAAUGUGACUAUGGCUAGACUGCC [A26U G30A G33A]	0.15
GGCAGAGCUCAACACAGCGUGGCAAUGUGACCGUGGCUAGUCUGCC [A26U G30A U32C A41U]	0.06
GGCAGAGCUCAACACAGCGUGGCAAUGUGCCUGUGGCUAGACUGCG [A26U G30C C46G]	0.21
GGCAGAGCUCAACACAGCGUGGCAAUGUGCCAGUGGCUAGACUGCC [A26U G30C U32A]	0.22

Variant	self-cleavage
GGCAGAGCUCAACACAGCGUGGCAAUGUGUCUGUGACUAGAAUGCC [A26U G30U G36A C42A]	0.01
GGCAGAGCUCAACACAGCGUGGCAAUGUGGCUAUGGCUAGACUACC [A26U G33A G44A]	0.13
GGCAGAGCUCAACACAGCGUGGCAAUGUGGCUCUCGCUAGACUGGC [A26U G33C G35C C45G]	0.05
GGCAGAGCUCAACACAGCGUGGCAAUGUGGCUCUGUCUAGACUGCC [A26U G33C G36U]	0.06
GGCAGAGCUCAACACAGCGUGGCAAUGUGGCUGUAGCCAGACUGCC [A26U G35A U38C]	0.03
GGCAGAGCUCAACACAGCGUGGCAAUGUGGCUGUCUCUAGACUGCC [A26U G35C G36U]	0.06
GGCAGAGCUCAACACAGCGUGGCAAUGUGGCUGUCGCUAGACGGCC [A26U G35C U43G]	0.46
GGCAGAGCUCAACACAGCGUGGCAAUGUGGCUGUGCGUAUAAUGCC [A26U G36C C37G G40U C42A]	0.06
GGCAGAGCUCAACACAGCGUGGCAAUGUGGCUGUGCCUAGAAUGCC [A26U G36C C42A]	0.12
GGCAGAGCUCAACACAGCGUGGCAAUGUGGCUGUGGCUAUAAUGCC [A26U G40U C42A]	0.09
GGCAGAGCUCAACACAGCGUGGCAAUGUGGCUGUGGCUAGACUAUC [A26U G44A C45U]	0.05
GGCAGAGCUCAACACAGCGUGGCAAUGAGGGUGUGGCUUGACUGCA [A26U U28A C31G A39U C46A]	0.02
GGCAGAGCUCAACACAGCGUGGCAAUGUGGCAGUGACUAGACUGCC [A26U U32A G36A]	0.03
GGCAGAGCUCAACACAGCGUGGCAAUGUGGCUGCGGCGAGACUGCC [A26U U34C U38G]	0.02
GGCAGAGCUCAACACAGCGUGGCAAAAUGGAUGUGGCUUGACUGCC [G27A C31A A39U]	0.17
GGCAGAGCUCAACACAGCGUGGCAAAAUGGAUGUAGCUAGACUGCC [G27A C31A G35A]	0.03
GGCAGAGCUCAACACAGCGUGGCAAAAUGGGGGUGCCUAGGAUGCC [G27A C31G U32G G36C A41G C42A]	0.07
GGCAGAGCUCAACACAGCGUGGCAAAAUGGGUGUGGCUAGACAGCC [G27A C31G U43A]	0.12
GGCAGAGCUCAACACAGCGUGGCAAAAUGGUUUUGGCUAGACUGCC [G27A C31U G33U]	0.01

Variant	self-cleavage
GGCAGAGCUCAACACAGCGUGGCAAAAUGGCUGUGGAUAGACUGGC [G27A C37A C45G]	0.03
GGCAGAGCUCAACACAGCGUGGCAAAAUAGCUGUGACUAGACUGCC [G27A G29A G36A]	0.09
GGCAGAGCUCAACACAGCGUGGCAAAAUCGCUGUGGCUAGACUGCA [G27A G29C C46A]	0.53
GGCAGAGCUCAACACAGCGUGGCAAAAUCGCUUUAGAUAGACUGCC [G27A G29C G33U G35A C37A]	0.03
GGCAGAGCUCAACACAGCGUGGCAAAAUUGCUGUGGCUAGACUGCU [G27A G29U C46U]	0.7
GGCAGAGCUCAACACAGCGUGGCAAAAUGUCUGUGGCUUGACUGCC [G27A G30U A39U]	0.33
GGCAGAGCUCAACACAGCGUGGCAAAAUGUCUGUGGCUAGCCUGCC [G27A G30U A41C]	0.08
GGCAGAGCUCAACACAGCGUGGCAAAAUGGCUCUGGUUCGACUGCC [G27A G33C C37U A39C]	0.03
GGCAGAGCUCAACACAGCGUGGCAAAAUGGCUCUGACUAGCCGGCC [G27A G33C G36A A41C U43G]	0.01
GGCAGAGCUCAACACAGCGUGGCAAAAUGGCUCUGACUAGACAGCC [G27A G33C G36A U43A]	0.02
GGCAGAGCUCAACACAGCGUGGCAAAAUGGCUGUCGCUAGACGGCC [G27A G35C U43G]	0.04
GGCAGAGCUCAACACAGCGUGGCAAAAUGGCUGUUGGUAGACUGCC [G27A G35U C37G]	0.02
GGCAGAGCUCAACACAGCGUGGCAAAAUGGCUGUGCCUAGACUGCA [G27A G36C C46A]	0.07
GGCAGAGCUCAACACAGCGUGGCAAAAUGGCUGUGUCUAGGCUGCC [G27A G36U A41G]	0.03
GGCAGAGCUCAACACAGCGUGGCAAAAUGGCUGUGGCUAAACAGCC [G27A G40A U43A]	0.01
GGCAGAGCUCAACACAGCGUGGCAAAAAGACUGUGGCUAGACUGUC [G27A U28A G30A C45U]	1.53
GGCAGAGCUCAACACAGCGUGGCAAAAAGGCUGUGGCUAGACCGUC [G27A U28A U43C C45U]	0.07
GGCAGAGCUCAACACAGCGUGGCAAAACGCCUGUUGCUAGAUUGCC [G27A U28C G30C G35U C42U]	0.05
